Experimental data from paper PMC4336329 (PLoS ONE, 2015).
The campaign covered roughly 310,000 compounds. About 2,200 (0.71%) showed an effect of 50% or more. Effects have a minus sign here. This is one part of the list.

Molecular target: human ether-à-go-go-related gene (hERG) potassium channel (human, UniProt Q12809)
Assay: primary screen, population patch clamp on CHO cells stably expressing hERG

Chain of human ether-à-go-go-related gene (hERG) potassium channel (Q12809 whole entry, looked up): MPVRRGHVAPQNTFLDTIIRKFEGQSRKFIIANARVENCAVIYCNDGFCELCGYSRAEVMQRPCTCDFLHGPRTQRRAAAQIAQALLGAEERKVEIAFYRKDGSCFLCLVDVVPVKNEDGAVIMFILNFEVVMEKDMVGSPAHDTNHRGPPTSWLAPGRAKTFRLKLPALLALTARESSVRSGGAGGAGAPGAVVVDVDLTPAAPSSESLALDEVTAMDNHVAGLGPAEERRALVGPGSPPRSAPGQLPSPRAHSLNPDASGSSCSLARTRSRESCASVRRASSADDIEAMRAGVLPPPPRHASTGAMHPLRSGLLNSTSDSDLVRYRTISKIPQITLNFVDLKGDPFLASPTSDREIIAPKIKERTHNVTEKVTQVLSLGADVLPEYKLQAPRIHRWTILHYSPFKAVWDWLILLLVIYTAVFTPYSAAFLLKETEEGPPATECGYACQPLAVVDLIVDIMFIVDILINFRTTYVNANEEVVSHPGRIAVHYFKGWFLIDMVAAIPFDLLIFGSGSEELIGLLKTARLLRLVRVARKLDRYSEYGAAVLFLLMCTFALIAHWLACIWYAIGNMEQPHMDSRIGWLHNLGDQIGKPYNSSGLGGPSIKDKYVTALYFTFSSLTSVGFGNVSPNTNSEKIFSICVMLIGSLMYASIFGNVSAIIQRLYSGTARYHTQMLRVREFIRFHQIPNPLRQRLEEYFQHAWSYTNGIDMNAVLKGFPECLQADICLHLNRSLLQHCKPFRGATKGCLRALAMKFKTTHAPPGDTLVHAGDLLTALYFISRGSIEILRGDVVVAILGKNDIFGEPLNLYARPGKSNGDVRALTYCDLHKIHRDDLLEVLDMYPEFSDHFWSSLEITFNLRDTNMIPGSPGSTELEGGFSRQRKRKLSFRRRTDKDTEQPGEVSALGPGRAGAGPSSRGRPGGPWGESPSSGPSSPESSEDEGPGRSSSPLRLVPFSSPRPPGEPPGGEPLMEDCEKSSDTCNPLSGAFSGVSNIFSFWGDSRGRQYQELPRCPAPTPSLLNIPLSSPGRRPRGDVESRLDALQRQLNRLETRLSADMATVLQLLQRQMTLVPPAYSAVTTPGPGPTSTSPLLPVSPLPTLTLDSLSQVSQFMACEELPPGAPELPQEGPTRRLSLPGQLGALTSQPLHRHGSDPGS

Compound	hERG current change (%, negative = inhibition) at 1uM
O=c1c(C(c2ccccc2)c2c(O)sc3ccccc3c2=O)c(O)sc2ccccc12	5.05%
Cn1c(C23CC4CC(CC(C4)C2)C3)n[nH]c1=S	12%
O=C(COC(=O)CCC(=O)c1ccc(Cl)cc1)NCC1CCCO1 (stereo not drawn)	12.2%
C=CCOc1ccccc1CN1CCC(n2nccc2NC(=O)c2ccccc2)CC1	-25.5%
O=C(NNC(=O)C1CC=CCC1C(=O)O)c1cccs1 (stereo not drawn)	9.94%
Cc1ccc(NC(=O)COC(=O)c2ccc([N+](=O)[O-])o2)cc1S(=O)(=O)N1CCCCC1	7.15%
COc1ccccc1CNC(=O)CC(C)c1ccccc1 (stereo not drawn)	11.2%
Oc1c(Br)cc(Br)cc1CN1CCN(Cc2ccccc2)CC1	15%
CC(=O)Nc1ccc(NC(=O)CCc2nc3ccccc3c(=O)[nH]2)cc1	10.8%
O=C(N/N=C/c1ccc(O)cc1)c1cccc(C(F)(F)F)c1	5.94%
CCCOc1ccc(C(C)=O)cc1Cc1c(O)nc(SC)[nH]c1=O	13.7%
COc1ccc(OC)c(-c2nnc(SCC(=O)NC3CCCCC3)o2)c1	-10.4%
CCCN1CCOC(CC(=O)Nc2ccc([N+](=O)[O-])cc2)C1=O (stereo not drawn)	10.5%
O=C(NCC1CCCO1)/C(=C\c1ccco1)NC(=O)c1ccc(Cl)cc1 (stereo not drawn)	1.85%
CCCCn1c(=O)c2c(O)cc(=O)oc2c2ccccc21	17.1%
CC1Sc2ccc(S(=O)(=O)N3CCC(C(=O)N(C)Cc4ccco4)CC3)cc2NC1=O (stereo not drawn)	7.3%
O=C(NCCN1CCOCC1)c1ccc(NS(=O)(=O)c2ccccc2)cc1	10.2%
Cc1sc(NC(=O)COc2ccccc2)c(C#N)c1C	15.3%
O=C(c1cc(COc2ccc(F)cc2Cl)on1)N1CC2C[C@@H]3CC1C[C@H](C2)C3	12.6%
CC(=O)c1cc(-c2ccccc2)n(CCC(=O)NC2CCCCCCC2)c1C	8.01%
COc1ccccc1C(=O)OCc1ccc2sc(C)nc2c1	4.31%
O=C(CSc1nnnn1-c1ccccc1)CC(=O)Nc1ccc(Cl)cc1	-6.07%
Cc1onc(-c2ccccc2Cl)c1C(=O)N1CCN(c2nc3ccccc3s2)CC1	8.43%

Compound	hERG current change (%, negative = inhibition) at 1uM
O=C(CC1Oc2ccccc2NC1=O)NCCCN1CCCC1=O (stereo not drawn)	-6.46%
CCCCN(CC)CCNC(=O)CN1C(=O)COc2ccc(S(=O)(=O)N3CCCC3)cc21	9.86%
CCc1ccc(CN2CCC(n3nccc3NC(=O)c3ccccc3C)CC2)cc1	-85.1%
O=C(OCc1nnc(-c2ccccc2)o1)c1ccccc1	10.3%
CCOC(=O)COc1cccc2c(=O)n(CC(N)=O)ccc12	11.6%
Cc1cc(=O)oc2ccc(OCC(=O)O)cc12	12.9%
CC(=O)N1CCCc2ccc(NS(=O)(=O)c3ccc(C)c(C)c3)cc21	13.3%
COc1ccc(-n2c(=O)c3c4c(sc3n(CC(=O)NC3CCCC3)c2=O)CCCC4)c(OC)c1	12.7%
CCCNc1nc(Cl)nc(NCc2cccnc2)n1	10.2%
CC12CCC(=O)N1C(C(=O)OCC(=O)Nc1cccc(S(=O)(=O)N3CCCCCC3)c1)CS2 (stereo not drawn)	-51.9%
O=C(/C=C/c1ccco1)NC(=S)Nc1ccccc1	14.7%
Cc1cc(C)n2nc(C(=O)OCC(=O)Nc3cc(Cl)ccc3C)nc2n1	8.14%
Cc1cc(C)c(S(=O)(=O)N2CCc3ccccc32)c(C)c1	17.5%
Nc1nc(N)c2sc3nc4c(cc3c2n1)CCC4	3.67%
COc1ccc(CCC(C)NCCc2ccccc2)cc1 (stereo not drawn)	-17.9%
COC(=O)CNC(=O)c1ccc2c(c1)S(=O)(=O)c1ccccc1C2=O	0.0767%
CCN1C(=O)[C@H]2[C@@H](c3ccc(C)cc3)N3C(=O)N(c4cccc(Cl)c4)C(=O)[C@@]3(C)[C@H]2C1=O	12.8%
Nc1nc(N)nc(-c2ccccc2)n1	14.6%
Cc1c(-c2nc(-c3ccc(C(F)(F)F)cc3)no2)n(C)oc1=O	10.9%
CC1CC1C(=O)Nc1cc(C(F)(F)F)ccc1N1CCOCC1 (stereo not drawn)	-0.0887%
COc1cc(Cl)c(C)cc1NC(=O)c1ccc(S(C)(=O)=O)cc1	6.45%
O=C(c1cc(-c2ccco2)nc2ccccc12)N1CCN(Cc2ccccc2)CC1	-1.82%
Cc1ccc(S(=O)(=O)NC(Cc2ccc(Cl)cc2)C(=O)O)cc1 (stereo not drawn)	14.6%

Compound	hERG current change (%, negative = inhibition) at 1uM
N#Cc1c(NC(=O)CSc2ncn[nH]2)sc2c1CCCC2	11%
COc1c(C)cc(Br)cc1C(=O)Nc1cccc(NC(=O)c2ccco2)c1	-6.44%
Cc1ccc(S(=O)(=O)NNC(=S)NCCc2ccccc2)cc1	3.06%
CCCCN1C(=O)c2ccc(C(=O)NCCN3C(=O)S/C(=C\c4cccnc4)C3=O)cc2C1=O	6.61%
CC(/C=C/c1ccccc1)NC(N)=O (stereo not drawn)	11.2%
COC(=O)C1CCN(C(=O)Nc2ccccc2)CC1	19.6%
CCCCOc1ccc(C(=O)Nc2ccc(N3CCN(C(=O)C(C)C)CC3)cc2)cc1	13.1%
COc1ccc(-n2c(SCC(=O)NCCC(C)C)nc3ccsc3c2=O)cc1	-1.44%
CC12CC3CC(C)(C1)CC(C(=O)NC(=S)N1CCOCC1)(C3)C2	-2.54%
Fc1ccc(/C=N/NC(=S)Nc2cccnc2)cc1F	6.51%
O=C(CN1CCSCC1)N/N=C/c1ccc(F)cc1	-3.06%
CC1=C(C(=O)NCCc2ccc(C)cc2)C2(CCC(C)CC2)OC1=O (stereo not drawn)	13.1%
O=C1CSC(c2ccccn2)N1c1ccc2ccccc2c1 (stereo not drawn)	-1.59%
O=C(O)C[C@H]1c2ccc(C(F)(F)F)cc2S(=O)(=O)N1Cc1ccccc1	15.8%
N#Cc1ccc(Nc2ccccc2)c(N)c1	5.67%
O=C(Cn1ncn2nc(-c3ccccc3)cc2c1=O)NCc1ccccn1	19.5%
O=C1CC(Cc2ccccc2)C(=O)N1Cc1ccco1 (stereo not drawn)	0.0823%
COc1ccc(/C=C/C(=O)c2ccc3c4c(cccc24)CC3)cc1OC	13.9%
CCOCCCNC(=O)CN1C2CCC1CC(O)(c1ccc(OC)cc1)C2 (stereo not drawn)	-5.17%
Cn1nc([N+](=O)[O-])nc1Oc1ccc(C(C)(C)C)cc1	12.9%
C/C(=N\NC(=O)c1ccncc1)c1cc2ccccc2oc1=O	4.21%
Cc1ccc(CN2C(=O)CCC2(C)C(=O)NCc2cccnc2)cc1 (stereo not drawn)	5.78%
CCOCCCNC(=O)CN1C(=O)/C(=C/c2ccccc2C)Sc2ccccc21	5.65%

Compound	hERG current change (%, negative = inhibition) at 1uM
C[N+]12CCC(CC1)C(OC(=O)C(O)(c1ccccc1)c1ccccc1)C2.[Br-] (stereo not drawn)	10.3%
O=S(=O)(NCc1ccccc1Cl)c1ccc(-n2cnnn2)cc1	15.5%
COc1ccccc1OCCn1c(=O)oc2ccc(C)cc21	2.65%
COC(C[C@@H]1O[C@@H]1C(=O)[C@@H](C)OCc1ccccc1)OC	22.8%
OCC[C@@H]1C[C@@H](O)[C@H](O)[C@]2(OCCc3ccccc32)O1	13.4%
CCOc1ccc(-c2cc(CCCC(=O)NCCC(C)C)no2)cc1	5.69%
CC1CCN(c2c(NCc3ccc(C(=O)N(C)C4CCCCC4)cc3)c(=O)c2=O)CC1	11.6%
CCNc1nc(Oc2ccc(C(=O)OC)cc2)nc(SC)n1	7.25%
O=C(CSc1nnc2ccc(-c3cccnc3)nn12)Nc1ccccc1F	4.23%
CCOCCn1ccc2c(OCC(=O)Nc3ccccc3OC)cccc2c1=O	15%
CN(CC(=O)Nc1ccc(F)cc1)CC(=O)NC1CCCCC1	6.41%
CCSc1ncc(Cl)c(C(=O)Nc2sc3c(c2C(=O)NCc2cccnc2)CCCC3)n1	14.5%
COc1ccc(C2C(C(=O)N3CCOCC3)=C(C)NC3=C2C(=O)CC(C)(C)C3)cc1O (stereo not drawn)	7.79%
CCCc1cc(=O)[nH]c(SCC(=O)Nc2ccc(Br)cc2)n1	3.57%
CCOCCCNC(=O)c1cc2c(=O)n3ccccc3nc2s1	-8.87%
O=C(CSc1nnc(CNC(=O)c2ccc(F)cc2)o1)Nc1ccc2c(c1)OCO2	12%
CCn1c(C)c(C)c2cc(C(=O)Nc3cccc(Cl)c3)ccc21	9.86%
Cc1cc2nc(N3C(=O)CNC3=S)sc2cc1C	14.3%
O=C(C1CCC(=O)N(C2CCCC2)C1)N1CCN(c2ccccc2Cl)CC1 (stereo not drawn)	9.21%
NC(N)=NC(=S)Nc1ccc(Cl)cc1	8.12%
CCn1c(COc2ccccc2)nnc1SCC(=O)Nc1ccc(N2CCOCC2)cc1	11.6%
